# Measured values from article PMC4336329 (PLoS ONE, 2015).
# In all, about 310,000 compounds went through this assay and about 14,000 (4.5%) showed an effect of 50% or more. Effects have a minus sign here. Some of the results follow.
# Biological target: human ether-à-go-go-related gene (hERG) potassium channel (human, UniProt Q12809)
# Assay: primary screen, population patch clamp on CHO cells stably expressing hERG
# 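Also: peak tail current of the secondary pulse compared with the same well before compound.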
# Sequence of human ether-à-go-go-related gene (hERG) potassium channel (Q12809 whole entry, looked up): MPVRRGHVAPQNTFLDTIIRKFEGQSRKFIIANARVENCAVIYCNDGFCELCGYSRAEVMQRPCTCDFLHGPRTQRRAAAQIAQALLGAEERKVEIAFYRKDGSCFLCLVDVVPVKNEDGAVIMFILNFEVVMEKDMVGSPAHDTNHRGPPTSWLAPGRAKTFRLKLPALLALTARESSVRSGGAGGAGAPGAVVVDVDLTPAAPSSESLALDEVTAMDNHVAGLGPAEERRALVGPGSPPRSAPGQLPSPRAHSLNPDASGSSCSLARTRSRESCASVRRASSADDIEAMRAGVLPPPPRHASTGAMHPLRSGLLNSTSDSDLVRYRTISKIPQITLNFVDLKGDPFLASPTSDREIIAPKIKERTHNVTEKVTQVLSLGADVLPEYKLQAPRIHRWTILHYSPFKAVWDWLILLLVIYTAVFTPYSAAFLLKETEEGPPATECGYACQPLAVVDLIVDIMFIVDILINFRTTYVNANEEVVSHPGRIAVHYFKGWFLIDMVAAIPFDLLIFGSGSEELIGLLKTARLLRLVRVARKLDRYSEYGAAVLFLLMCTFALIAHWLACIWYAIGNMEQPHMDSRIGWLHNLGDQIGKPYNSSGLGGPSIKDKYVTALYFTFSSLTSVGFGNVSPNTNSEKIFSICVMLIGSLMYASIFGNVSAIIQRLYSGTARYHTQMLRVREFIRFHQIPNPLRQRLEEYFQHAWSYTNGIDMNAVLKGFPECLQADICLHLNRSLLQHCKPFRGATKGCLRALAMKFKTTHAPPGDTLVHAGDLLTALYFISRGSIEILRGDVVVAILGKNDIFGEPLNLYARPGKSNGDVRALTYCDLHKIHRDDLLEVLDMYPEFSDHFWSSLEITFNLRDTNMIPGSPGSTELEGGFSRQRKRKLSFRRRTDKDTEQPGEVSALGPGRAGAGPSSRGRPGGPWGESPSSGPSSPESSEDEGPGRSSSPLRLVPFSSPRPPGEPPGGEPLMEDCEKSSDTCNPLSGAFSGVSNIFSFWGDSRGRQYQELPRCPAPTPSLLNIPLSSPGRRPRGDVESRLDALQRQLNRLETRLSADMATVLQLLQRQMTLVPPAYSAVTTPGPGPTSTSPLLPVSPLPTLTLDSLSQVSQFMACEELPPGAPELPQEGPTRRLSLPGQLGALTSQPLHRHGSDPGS
row,SMILES,"hERG current change (%, negative = inhibition) at 10uM [%]"
1,Cc1ccc(CSc2sc(C(=O)c3ccccc3)c(N)c2C#N)cc1,6.41
2,CCOc1cc(C2Nc3ccccc3C(=O)N2c2ccccc2)ccc1O (stereo not drawn),4.38
3,CCOc1ccccc1NC(=S)NC(=O)C1CCCCC1,14.6
4,Cc1ccc(C(=O)NNC(=O)CNc2cccc(Cl)c2)cc1,19
5,Cc1ccc(OCCCC(=O)Nc2ccc(S(=O)(=O)Nc3ccccn3)cc2)cc1,6.11
6,O=C(CCN1CCOCC1)NNC(=S)NC(=O)c1ccccc1,19.5
7,CN1CCc2nc3ccc(F)cc3c(C(N)=O)c2C1.Cl,-4.4
8,O=C(Nc1cc(=O)c2ccccc2o1)N1CCCCC1,2.06
9,O=C(CCC(=O)NNc1nc2ccccc2c2nc(-c3ccccc3)nn12)NCCCN1CCOCC1,7.93
10,CCn1cc(C(=O)NCCN(C)C)c(=O)c2cc(F)c(N3CCN(C)CC3)cc21.Cl,4.78
11,CCOC(=O)c1c(C)[nH]c(C(=O)OCC(=O)N2CCCC2=O)c1C,6.2
12,COc1cccc(N2CCN(Cc3nnnn3C3CCCCC3)CC2)c1,16.2
13,CN(CC(=O)Nc1ccc(F)cc1)C(=O)CN1C(=O)NC2(CCCc3ccccc32)C1=O (stereo not drawn),10.7
14,O=C(CP(=O)(c1ccccc1)c1ccccc1)N1CCCCC1,1.57
15,CCN1CCN(c2cc(N3CCCC3)c(F)cc2[N+](=O)[O-])CC1,-27.9
16,COc1cc2c(cc1OC)CN(C(=O)c1ccc(-c3ccccc3)cc1)CC2,-0.999
17,Cn1c(SCc2cc(=O)n3cc(Br)ccc3n2)nnc1C1COc2ccccc2O1 (stereo not drawn),-72
18,Cc1ccc([C@@H]2[C@@H]3C(=O)N(c4ccccc4)C(=O)[C@@H]3[C@]3(C)C(=O)N(CC4CC4)CC(=O)N23)o1,-4.44
19,O=C(O)CCNS(=O)(=O)c1ccc2c(c1)OCCCO2,18.5
20,Cc1cc(C)c(NC(=O)CCCOC(=O)C2=COCCO2)c(C)c1,16.1
21,CN(c1ccccc1)c1ccc(/C=C/[N+](=O)[O-])cc1,15.5
22,CCN(CC)c1ccc(/C=C(\C#N)C(=O)NCc2ccco2)cc1,2.25
23,CN1C(=S)SC(/[N+]([O-])=C\c2cccs2)C1(C)C (stereo not drawn),3.73
24,Cc1ccn2c(NC(=O)c3ccccc3)c(-c3cccs3)nc2c1,16.5

row,SMILES,"hERG current change (%, negative = inhibition) at 10uM [%]"
1,COc1ccc(NC(=O)CSCC(=O)N(C)Cc2ccc3c(c2)OCCO3)cc1,0.31
2,Cc1cccc(OCCSc2cc(C)nc(N)n2)c1,-7.77
3,CC1CCCCN1CCNC(=O)c1ccc2c(c1)N(Cc1ccccc1)C(=O)c1ccccc1S2(=O)=O (stereo not drawn),-20.8
4,CCC1=C(OC(=O)N(CC)CC)N2C(=O)OC(=NCc3ccccc3)[C@]2(C)[C@H]2C1=CC[C@H]1C(=O)NC(=O)[C@H]12,-6.14
5,COc1cccc(NC(=O)N2CCCC2C(=O)NCC(C)C)c1 (stereo not drawn),15.8
6,CCCCn1c(N)c(N(CCOC)C(=O)c2ccc(NC3CC3)c([N+](=O)[O-])c2)c(=O)[nH]c1=O,-3.27
7,Oc1ccc(O)c(/C(=N/Nc2ccccc2)c2ccccc2)c1,11
8,Cc1ccccc1CS(=O)(=O)CCC(=O)NCCN1CCN(c2cccc(Cl)c2)CC1,-42.5
9,COC(=O)c1cc(NC(=O)CN2CCN(C(C)=O)CC2)cc(C(=O)OC)c1,3.85
10,C=CCN1c2ccccc2[C@]23C[C@@H](C(=O)OC)N(C(C)=O)C2=NC(C(=O)OC)=C(C(=O)OC)[C@H]13,-42.9
11,CCn1cc(NC(=O)Nc2ccccc2C(=O)OC)c(C(N)=O)n1,10.1
12,CCCN1CCN(C(c2cc3cc4c(cc3[nH]c2=O)OCO4)c2nnnn2C(C)(C)C)CC1 (stereo not drawn),-12.8
13,O=S(=O)(c1ccc(OC(F)(F)F)cc1)N1CCCC(N2CCOCC2)C1 (stereo not drawn),-40.1
14,COc1ccc(-n2c(Cn3nc(C(F)(F)F)cc3C)n[nH]c2=S)cc1,21.3
15,CCc1nnc(NS(=O)(=O)c2ccc(NC(=O)OC)cc2)s1,3.48
16,Cc1ccc(/C=C2/SC(=S)N(C3CCCCC3)C2=O)o1,0.16
17,Cc1ccnc(SCC(=O)N2CCc3ccccc32)n1,7.77
18,COc1cccc(C(=O)NCCS(=O)(=O)NCc2cccnc2)c1,8.66
19,C=CCSc1n[nH]c(-c2ccc(OC)cc2)n1,7.64
20,COc1ccc(OCCCC(=O)OC(C)C(=O)Nc2ccccc2[N+](=O)[O-])cc1 (stereo not drawn),-0.636
21,COc1ccccc1N1CCN(C(=O)C(C)N(c2ccccc2)S(C)(=O)=O)CC1 (stereo not drawn),5.64
22,CC(=O)Oc1cccc(N2C(=O)c3ccc(C(=O)O)cc3C2=O)c1,-2.25
23,Cc1cc(C(=O)Nc2nnc(C(F)(F)F)s2)no1,21.5
24,COc1ccc(/C=C2/C(=O)OCc3cc(OC)c(OC)cc32)c(OC)c1,-27.8

row,SMILES,"hERG current change (%, negative = inhibition) at 10uM [%]"
1,CS(=O)(=O)NCCNc1cc(Cl)ccc1[N+](=O)[O-],2.09
2,Cn1c(=O)oc2cc(S(=O)(=O)NCC3CCCO3)ccc21 (stereo not drawn),-1.26
3,Cc1ccc([N+](=O)[O-])cc1S(=O)(=O)Nc1ccccn1,9.5
4,O=C(NCc1ccco1)C1CN(S(=O)(=O)c2ccccc2)CCN1S(=O)(=O)c1ccccc1 (stereo not drawn),-37.3
5,CCOC(=O)c1cc2c(ccc3nc(C)c(C)c32)[nH]c1C,-23.3
6,COc1ccccc1CNC(=S)NCc1ccc(F)cc1,2.76
7,COC(=O)c1ccc(N2CCN(C)CC2)c([N+](=O)[O-])c1,-63.4
8,Cn1c(=O)c2c(-c3ccc(OC(F)F)cc3)cc(-c3ccccc3)nc2n(C)c1=O,2.37
9,Cc1ccc(-n2c(N)c(C#N)c(-c3ccc(Cl)cc3)c(C#N)c2=O)cc1,17.1
10,CN(C)/C=N/c1ncn(-c2ncc(C(F)(F)F)cc2Cl)n1,17.5
11,COc1ccc(C(=O)c2cc3cccc(OC)c3o2)cc1,-13.7
12,COc1ccc(C(=O)N/N=C/C(Br)=C/c2ccccc2)cc1,5.88
13,CCOC(=O)c1ccc2c(c1)nc(SC(C)C(=O)NCC1CCCO1)n2CC (stereo not drawn),-18.9
14,C[C@@H]1O[C@@H](O[C@@H]2C=C3CC[C@@H]4C(CC[C@]5(C)[C@@H](c6ccc(=O)oc6)CC[C@]45O)[C@@]3(C)CC2)[C@H](O)[C@H](O)[C@H]1O (stereo partly drawn),13.9
15,COc1ccc2nc(N3C(=O)CC(Cc4cc(C)cc(C)c4)C3=O)sc2c1 (stereo not drawn),9.23
16,Cn1c(=O)c2c(nc(N/N=C/c3cccnc3)n2Cc2ccccc2)n(C)c1=O,-51.2
17,Cc1nn(CC(=O)c2ccc(Cl)cc2Cl)c(C)[n+]1N.[Br-],11.4
18,COc1cc(C(=O)OC2CC3CCC2(C)C3(C)C)ccc1OC(C)=O (stereo not drawn),10.8
19,COc1ccc(N2CC(O)=C(c3nc(C)cs3)C2=N)cc1,3.07
20,O=C(NCCOc1cccnc1)c1ccc(OC2CCN(Cc3ccccn3)CC2)cc1,9.86
21,Cc1ccc(/C=N/N2CCN(Cc3ccccc3)CC2)o1.Cl,10.8
22,O=c1onc(-c2ccccc2)n1-c1cc(Cl)cc(Cl)c1,-2.13
23,CC(=O)NC(CC(=O)Nc1nc(-c2ccc(N(C)S(C)(=O)=O)cc2)cs1)c1ccccc1 (stereo not drawn),24.5
24,CC1=CN2C(=N)/C(=C/c3ccc([N+](=O)[O-])o3)C(=O)N=C2S1,17

row,SMILES,"hERG current change (%, negative = inhibition) at 10uM [%]"
1,CCCOc1ccc(Cc2c(O)nc(N)[nH]c2=O)cc1C,15.9
2,O=C(N/N=C/c1c(O)n(CCc2ccc(F)cc2)c(=O)[nH]c1=O)c1ccncc1,2.13
3,Cc1ccc(C(=O)C(OC(=O)CNC(=O)c2ccc(Cl)cc2)c2ccccc2)cc1 (stereo not drawn),2.15
4,COc1ccc(/C=N/NC(=O)CC#N)cc1Oc1nc(Cl)ncc1F,9.22
5,C/C(Cn1nnc([N+](=O)[O-])n1)=N\NC(=O)c1ccccc1O,10.7
6,CCC(C)[C@H](NC(=O)NCc1ccc(F)cc1)C(=O)O (stereo partly drawn),9.31
7,O=C1CC(N2CCN(C/C=C/c3ccccc3)CC2)C(=O)N1CCc1ccccc1 (stereo not drawn),-58.1
8,CN(CC(=O)Nc1ccc(Cl)c(S(=O)(=O)N2CCOCC2)c1)C(=O)c1cccs1,-44.2
9,CCOC(=O)CN1C(=O)N[C@@H](c2ccccc2)[C@H](C(C)=O)[C@H]1C,11.2
10,Cc1cc(=O)oc(C)c1C(=O)N[C@@H](Cc1ccccc1)C(=O)O,16.9
11,CCOC(=O)N1CCN(C(=O)c2cc(COc3ccc4ncccc4c3)on2)CC1,-5.07
12,Cc1ccc(OCC(=O)Nc2ccc(O)c(C(=O)O)c2)cc1C,2.85
13,Cc1cc(NC(=O)COC(=O)c2cccc(O)c2)no1,11.5
14,CCOC(=O)C(NCc1ccc(OC)cc1)(NC(C)=O)C(F)(F)F (stereo not drawn),-4.47
15,Cc1c(Cl)c(=O)oc2cc(OC(C)C)ccc12,-4.39
16,COc1ccc(C(=O)NCCc2nnc(SCc3nc4ccccc4c(=O)[nH]3)n2C)cc1,-1.24
17,CN(CC(=O)Nc1ccccc1Br)C(=O)CNC(=O)C1CCCCC1,14.6
18,Cc1onc(-c2c(F)cccc2Cl)c1C(=O)Nc1sc2c(c1C#N)CCC(C(C)(C)C)C2 (stereo not drawn),23.4
19,Cc1c(Cl)cccc1NC(=O)CCC(=O)NNC(=O)CCC(=O)O,20.4
20,CCOC(=O)C1CCN(C(=O)COC(=O)c2cc(-c3cccs3)nn2-c2ccccc2)CC1,-49.3
21,CC(C)c1cc(C(=O)O)c2ccccc2n1,-8.14
